In PubChem BioAssay AID1347073 (National Center for Advancing Translational Sciences (NCATS), 2019):
In all, about 45,000 compounds went through this assay and about 200 (0.44%) were called active. Not shown: some 7% with an inconclusive outcome. Calls come from the whole dose curve; as a rule, active = well fitted activation curve with a large enough effect; inconclusive = small, poorly fitted or top-dose-only effect; inactive = no such curve, though single readings can be large or run the other way. Some of the results follow.

experiment: qHTS of TDP-43 Inhibitors: NCGC Sytravon Library Screen; conditions: yeast TDP-43 toxicity rescue, BacTiter-Glo growth, 24 h; series mostly up to 46.1 µM; growth rescue (activation): at the top concentration; note: 0% is about no effect; nearly all actives have a fitted effect of over 55% in size
Method in brief: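 TDP-43-expressing yeast, pregrown in raffinose, seeded at OD600 0.02 in galactose medium with compound for 24 hr at 30 deg C. Growth read by BacTiter-Glo luminescence, so rescue of toxicity appears as activation.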

Row | SMILES | growth rescue (activation)
1 | c1ccc(-c2nc3ccccc3[nH]2)nc1 | inactive: 2.03%
2 | Cc1nc(SCC(=O)Nc2nnc(C(C)C)s2)n[nH]1 | inactive: -13.9%
3 | CCOc1cc(C2C(C(=O)OC(C)C)=C(C)NC3=C2C(=O)CCC3)cc([N+](=O)[O-])c1O (configuration not stated) | inactive: -10%
4 | CC(OC(=O)c1ccco1)C(=O)Nc1ccc(Cl)cn1 (configuration not stated) | inactive: -0.0689%
5 | COc1ccc(S(=O)(=O)N2CCCCC2c2cc(C(=O)Nc3ccc(F)c(Cl)c3)no2)cc1 (configuration not stated) | inactive: 14.2%
6 | Cc1ccc(S(=O)(=O)N2CCOCC2)cc1C(=O)Nc1nc2ccccc2[nH]1 | inactive: 10.9%
7 | CCCc1nc(SCC(=O)NC2CC2)c2c(C)c(C)sc2n1 | inactive: -10.6%
8 | Cc1cc(NC(=O)C(C)Oc2ccc(Cl)cc2Cl)no1 (configuration not stated) | inactive: -1.13%
9 | Cc1ccc(/C=N/NC(=O)c2ccc3nc[nH]c3c2)o1 | inactive: 19.1%
10 | CCOc1ncccc1C(=O)OCC(=O)Nc1cc(S(=O)(=O)N2CCOCC2)ccc1Cl | inactive: 2.39%
11 | CCCC(=O)N1CCCC1(C)C(=O)Nc1ccc2nc(C)ccc2c1 (configuration not stated) | inactive: -2.31%
12 | Cn1c(=O)c2c(ncn2CC(=O)N2CCCCCC2)n(C)c1=O | inactive: -0.44%
13 | O=C(COC(=O)c1cccc(S(=O)(=O)N2CCc3ccccc32)c1)Nc1ncc(C(F)(F)F)cc1Cl | inactive: 9.22%
14 | CC(Oc1ccccc1)C(=O)NN1Cc2ccccc2C1=N (configuration not stated) | inactive: 3.64%
15 | Cc1ccc(O)c(NC(=S)NC(=O)/C=C/c2ccco2)c1 | inactive: 10.1%
16 | O=C(COC(=O)Cc1ccsc1)Nc1ccc(Cl)cc1F | inactive: -2.86%
17 | COc1ccccc1OCC(=O)Nc1ccc(S(=O)(=O)N2CCOCC2)cc1 | inactive: 14.1%
18 | O=C(CCNS(=O)(=O)c1ccc(Br)cc1)NC1CCCCC1 | inactive: 4.63%
19 | C=CCn1c(SCc2nc3ccccc3c(=O)[nH]2)nc2scc(C3CC3)c2c1=O | inactive: 25.6%
20 | CCOC(=O)Cc1csc(NC(=O)CCSc2ccccc2)n1 | inactive: 25.4%
21 | Cc1ccc(NC(=O)NN(C)c2c(Cl)c(Cl)nn2C)cc1 | inactive: 3.83%
22 | CCCNC(=O)C1(C)CCN(C(=O)c2ccc3sccc3c2)C1 (configuration not stated) | inactive: -0.984%

Row | SMILES | growth rescue (activation)
23 | COc1ccc(NC(=O)COC(=O)c2cccn2C)cc1S(=O)(=O)N1CCCCC1 | inactive: -2.11%
24 | CCCOc1ccc(/C=C/c2[nH]c(=O)[nH]c(=O)c2[N+](=O)[O-])cc1OCC | inactive: -9.68%
25 | CC(C)CNS(=O)(=O)c1ccc(CC(C)C)cc1 | inactive: -11.1%
26 | NC(=O)c1ccc(Nc2nc(C(N)c3ccccc3Cl)cs2)cc1 (configuration not stated) | inactive: 10.7%
27 | O=C(Cn1cnc2ccccc21)N/N=C/c1cccnc1 | inactive: -12.1%
28 | Cc1ccc(/C=N/Nc2ccc(Cl)c(C(=O)O)c2)s1 | inactive: 11.6%
29 | COc1ccccc1NS(=O)(=O)c1cccc(NC(=O)NC2CCCCC2)c1 | inactive: 26.9%
30 | N#Cc1ccccc1COC(=O)CCN=C1NS(=O)(=O)c2ccccc21 | inactive: -16.3%
31 | COc1cc(N2C(=O)c3ccccc3C2=O)c(Cl)cc1C(=O)OCC(=O)N1CCOCC1 | inactive: -14.6%
32 | Cc1ccc(NC(=O)CCC2CC(C)(C)OC2=O)cc1 (configuration not stated) | inactive: 8.88%
33 | Cc1cccc(NC(=O)CCNC(=O)c2ccco2)c1C | inactive: 4.53%
34 | NC(=O)c1ccccc1OCC(=O)Nc1ccc2c(c1)OCCO2 | inactive: -16.1%
35 | CC1CCCN(CC(=O)NNC(=O)COc2ccc(Br)cc2)C1 (configuration not stated) | inactive: 3.67%
36 | CN(C)C(CNC(=O)c1ccc([N+](=O)[O-])cc1Cl)c1ccco1 (configuration not stated) | inactive: 6.06%
37 | Cn1c2ccccc2c2cc(/C=C(\NC(=O)c3ccccc3)C(=O)O)ccc21 | inactive: -1.52%
38 | CCc1nc2c(OCc3ccc(C(=O)N(C)C)cc3)cccn2c1N(C=O)Cc1ccccc1 | inactive: 4.4%
39 | NC(c1ccccc1)c1csc(Nc2ccc(C(=O)NCCCO)cn2)n1 (configuration not stated) | inactive: 13.1%
40 | COc1ccc(/C=C/C(=O)NCCCN2CCOCC2)cc1 | inactive: 2.83%
41 | O=C(NCCCN=C1NS(=O)(=O)c2ccccc21)c1ccccc1Cl | inactive: 3.57%
42 | C/C(=N\n1cnnc1)c1ccccc1 | inactive: 10.3%
43 | Cc1cccc(/C=N/NC(=O)NC23CC4CC(CC(C4)C2)C3)n1 | inactive: 10.5%
44 | Cc1ccc(S(=O)(=O)N(C)CC(=O)NCC(=O)Nc2ccc(F)c(F)c2F)cc1 | inactive: -5.9%

Row | SMILES | growth rescue (activation)
45 | COc1ccc(N(C)C(=O)C2CCN(S(=O)(=O)c3cccc4nonc34)CC2)cc1 | inactive: -4.07%
46 | CC1(Oc2cccc(F)c2)CCN(Cc2ccc(-c3ccccc3)o2)C1 (configuration not stated) | inactive: 5.98%
47 | Cc1ccc(OCC(=O)N(Cc2ccccc2)C(C)C)c([N+](=O)[O-])n1 | inactive: 20%
48 | CS/C(=N\S(=O)(=O)c1cccs1)Nc1ccc(Cl)cc1 | inactive: 1.71%
49 | O=C(C(Cl)c1ccccc1)N1CCOCC1 (configuration not stated) | inactive: 0.412%
50 | O=C(Nc1ccccc1OC(F)F)C1CCCN1C(=O)c1cccs1 (configuration not stated) | inactive: 2.77%
51 | CCCc1nc2ccccc2c(C(=O)OCC(=O)Nc2c(C)n(C)n(-c3ccccc3)c2=O)c1CC | inactive: -14%
52 | O=c1cc(O)c(-c2ccc(Cl)c(Cl)c2)c(Cl)[nH]1 | inactive: -3.15%
53 | Cc1csc(NC(=O)NCC2CCCC(CNC(=O)Nc3nc(C)cs3)C2)n1 (configuration not stated) | inactive: 9.71%
54 | CNc1nc2[nH]c(=O)c3c(c2s1)OC(N)=C(C#N)C3c1ccccc1 (configuration not stated) | inactive: 8.87%
55 | CCOC(=O)C1(Cc2ccc(OC)cc2)CCN(C(=O)c2cc3ccccc3[nH]2)CC1 | inactive: 28%
56 | Cc1cccc(NC(=O)c2ccc3c(c2)OCCO3)c1 | inactive: 4.68%
57 | CON(C)S(=O)(=O)c1cccc(C(=O)NC2CCSc3ccccc32)c1 (configuration not stated) | inactive: 12.1%
58 | COc1ccccc1C(=O)Nc1ccc(Oc2nnc(-c3ccc(C)cc3)c3ccccc23)cc1 | inactive: -2.76%
59 | CC(C)(C)NC(=O)c1cc([N+](=O)[O-])ccc1N1CCCCC1 | inactive: 19.6%
60 | O=C(CC12CC3CC(CC(C3)C1)C2)NC(Cc1ccccc1)C(=O)O (configuration not stated) | inactive: -0.273%
61 | CCCC(=O)Nc1ccc2c(c1)nc(CCN1CCN(c3ccccn3)CC1)n2C | inactive: -8.61%
62 | COc1ccc2oc(=O)c(C(=O)C[n+]3cccc(C)c3)cc2c1 | inactive: -8.33%
63 | O=C(CSc1ncnc2[nH]ncc12)Nc1nc(-c2ccc(F)c(F)c2)cs1 | inactive: 1.94%
64 | COc1ccc(S(=O)(=O)N2CCCCCC2)cc1NC(=O)Cc1ccc(OC)c(OC)c1 | inactive: 21.6%
65 | O=C(NCc1ccc(Cl)c(Cl)c1)c1cc(C2CCCCN2C(=O)CCc2ccccc2)on1 (configuration not stated) | inactive: 17.3%
66 | Cc1c(Cl)cccc1NC(=O)CC1SC(=NCC2CCCO2)NC1=O (configuration not stated) | inactive: 8.85%

Row | SMILES | growth rescue (activation)
67 | CCOC(=O)C1=C(CS(=O)(=O)c2ccc(C)c(C)c2)NC(=O)NC1c1ccc(O)cc1 (configuration not stated) | inactive: 6.23%
68 | CC(=O)c1cccc(NC(=O)/C(=C\c2cccnc2)NC(=O)c2ccc(C)cc2)c1 | inactive: 12.7%
69 | Cn1c(SCC(=O)Nc2ccc(C(=O)O)cc2)nc2scc(-c3ccccc3Cl)c2c1=O | inactive: 19.1%
70 | C=C(C)c1cccc(C(C)(C)NC(=O)Nc2nncs2)c1 | inactive: -4.55%
71 | C/C(CC(=O)Nc1ccc2c(c1)OCCO2)=N\NC(=O)Cc1ccccc1 | inactive: -4.6%
72 | Cc1ccc(NC(=O)C2CC2c2ccccc2)c([N+](=O)[O-])c1 (configuration not stated) | inactive: 25.8%
73 | COc1ccc(OC)c(NC(=O)c2nc(-c3ccccc3)oc2C)c1 | inactive: 3%
74 | CC(Sc1ccccc1)C(=O)NN=C1CCCCCC1 (configuration not stated) | inactive: 10.4%
75 | COc1cc(COC(=O)c2cnc(C)cn2)c(OC)cc1Br | inactive: 11.4%
76 | O=S(=O)(c1ccc2nc(SCc3ccc(Cl)cc3)[nH]c2c1)N1CCOCC1 | inactive: 20.1%
77 | O=c1[nH]c(NNC(=S)NC2CCCCC2)nc2c1C1(CCCC1)Cc1ccccc1-2 | inactive: 14.8%
78 | OCCN1CCN(c2nc(-c3ccccc3O)nc3ccccc23)CC1 | inactive: -19.1%
79 | CCN(CC)S(=O)(=O)c1cccc(C(=O)N/N=C(\C)c2cccs2)c1 | inactive: -4.44%
80 | O=C(NCCCN1CCOCC1)c1cc(-c2ccco2)nc2ccccc12 | inactive: 3.16%
81 | CC(=O)c1cccc(NC(=O)C(OC(=O)c2cccs2)c2ccccc2)c1 (configuration not stated) | inactive: -1.71%
82 | CC12COC3(P(=O)(c4ccccc4)c4ccccc4)CC1CCC23CP(=O)(c1ccccc1)c1ccccc1 (configuration not stated) | inactive: -20.3%
83 | N#CCCN(C(=O)c1ccco1)c1ccccc1 | inactive: 10.6%
84 | Cc1cccc(NC(=S)N2CCN(c3cc(C)ccc3C)CC2)c1 | inactive: 21.4%
85 | CCCSc1nc2sc3c(c2c(=O)n1-c1ccc(OC)cc1)CCN(C)C3 | inactive: -19.5%
86 | CCC(C)(C)C1CCc2c(sc(NC(=O)c3ccoc3C)c2C(N)=O)C1 (configuration not stated) | inactive: 21.2%
87 | Cc1ccc2nc(COC(=O)CNC(=O)c3ccccc3)cn2c1 | inactive: 22.4%
88 | OCCNCc1c(OCc2ccc(Cl)cc2)ccc2ccccc12 | inactive: -13.7%

Row | SMILES | growth rescue (activation)
89 | Cc1ccccc1CN1CCN(C(=O)c2cc(-c3ccncc3)nc3ccccc23)CC1 | inactive: 6.43%
90 | O=C1CCCN1CCC1CCCCN1Cc1nc(COc2ccccc2)no1 (configuration not stated) | inactive: 2.89%
91 | COC(=O)c1ccc(C(=O)OC)c(NC(=O)C2CC(=O)N(C3CCCC3)C2)c1 (configuration not stated) | inactive: 4.78%
92 | NC(=O)c1cc(Cl)ccc1OCC(=O)NC1CC1 | inactive: 1.58%
93 | O=S(=O)(Nc1ccc(Cl)cn1)c1cnc(Cl)c(Br)c1 | inactive: 0.261%
94 | COc1cccc(-c2cnc3c(NC=O)cc(-c4cc(OC)c(OC)c(OC)c4)cn23)c1 | inactive: 21.7%
95 | O=C(O)C(F)(F)C(NCc1ccccc1)c1ccccc1 (configuration not stated) | inactive: -7.2%
96 | Cc1cc(Cl)ccc1C(O)c1ncc(-c2ccc(F)cc2)[nH]1 (configuration not stated) | inactive: -1.38%
97 | CCN1CCN(C(=O)CSc2nc3c(c(=O)n(C)c(=O)n3C)n2C)CC1 | inactive: 6.33%
98 | O=C(NC1CC1)C1CCN(S(=O)(=O)c2cc(Cl)ccc2Cl)CC1 | inactive: -5.4%
99 | COc1ccc(/C=N/NC(=O)c2cccnc2)cc1CSc1ccccn1 | inactive: 6.51%
100 | Cc1c(-c2nc(-c3ccc4c(c3)OCO4)no2)nnn1-c1ccc(Br)cc1F | inactive: 20.8%
101 | Cc1noc(NC(=O)c2cccc(Cl)c2Cl)c1C#N | inactive: 16%
102 | CCc1nc2ccc(C(=O)Nc3ccc(OC)c(OC)c3)cn2c1N(CC)Cc1cccc(Br)c1 | inactive: 14.2%
103 | CC(C)CC(NC(=O)C(NC(=O)OC(C)(C)C)C(C)C)C(=O)N1CCCC1C(N)=O (configuration not stated) | inactive: 11%
104 | CCC(=O)Nc1cccc(NC(=O)c2cccc([N+](=O)[O-])c2C)c1 | inactive: -8.96%
105 | COc1ccc(CNC(=O)C2=CCN(S(=O)(=O)c3ccc(C)cc3)CC2)cc1 | inactive: 18.2%
106 | Cc1ccc(C(NC(=O)Nc2ccccn2)C(Cl)(Cl)Cl)cc1F (configuration not stated) | inactive: 21.1%
107 | O=C(COc1ccc2ccccc2c1)Nc1cccnc1Cl | inactive: 17.5%
